PubChem BioAssay AID1460 (National Center for Advancing Translational Sciences (NCATS), 2008)
Values joined by “and” are separate entries in the source; they are usually repeats but may differ in a detail not shown here. Identical values can stand only once. Hit rate of the full screen: of about 270,000 compounds, about 5,800 (2.1%) were called active. This list was built around the results that the source calls inconclusive (neither active nor inactive); the mix of calls is not that of the screen. The call rests on the fitted dose curve; in most records, active means well fitted inhibition curve with a large enough effect; inconclusive means small, poorly fitted or top-dose-only effect; inactive means flat fitted curve, though single readings scatter. Potencies beside an inconclusive call are fits to weak or partial responses and may not hold up.

Molecular target: Microtubule-associated protein tau (Homo sapiens) (UniProt P10636)
Sequence of UniProt P10636 (P10636 whole entry, looked up): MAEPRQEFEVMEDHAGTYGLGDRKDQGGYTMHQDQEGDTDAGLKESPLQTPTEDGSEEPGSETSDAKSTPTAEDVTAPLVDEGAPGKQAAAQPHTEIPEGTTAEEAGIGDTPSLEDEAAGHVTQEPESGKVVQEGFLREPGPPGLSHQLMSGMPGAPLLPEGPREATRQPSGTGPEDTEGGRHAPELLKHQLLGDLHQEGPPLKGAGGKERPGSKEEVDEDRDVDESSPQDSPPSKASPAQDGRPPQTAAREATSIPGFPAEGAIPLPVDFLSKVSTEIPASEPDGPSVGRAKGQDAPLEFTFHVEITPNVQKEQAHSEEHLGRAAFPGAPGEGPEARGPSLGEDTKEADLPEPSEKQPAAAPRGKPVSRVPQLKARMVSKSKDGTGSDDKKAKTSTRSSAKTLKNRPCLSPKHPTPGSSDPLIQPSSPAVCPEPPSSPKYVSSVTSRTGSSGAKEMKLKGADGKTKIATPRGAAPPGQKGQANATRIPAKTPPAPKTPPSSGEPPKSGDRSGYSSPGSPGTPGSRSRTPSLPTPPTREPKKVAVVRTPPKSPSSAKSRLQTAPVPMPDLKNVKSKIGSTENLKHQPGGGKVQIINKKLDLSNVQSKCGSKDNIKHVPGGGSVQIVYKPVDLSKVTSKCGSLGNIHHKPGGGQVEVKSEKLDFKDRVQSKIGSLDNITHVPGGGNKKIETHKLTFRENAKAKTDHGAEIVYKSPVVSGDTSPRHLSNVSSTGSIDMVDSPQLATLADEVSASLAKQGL
Assay: qHTS for Inhibitors of Tau Fibril Formation, Thioflavin T Binding; further: nearly all actives have a fitted effect of over 55% in size
Conditions: recombinant tau K18 P301L (four-repeat tau fragment), heparin-induced fibrillization, ThT fluorescence; series mostly up to 57.4 µM
Method in brief: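 Tau K18 P301L fragment (15 uM unlabeled plus 0.24 uM Alexa 594-labeled) in 100 mM sodium acetate pH 7 with compound, fibrillization induced by 20 uM heparin for 6 hr at 37 C. Thioflavin T (30 uM) added, fluorescence read after 1 hr (ex 450, em 510 nm).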
Potency means the concentration at half of the fitted maximal effect; tags describe the fitted curve by direction and shape.

SMILES | Potency
COc1cc(O)c(C(=O)O)c(-c2cc(O)c(O)cc2C)c1 | active: 25.1 µM
CC1=NCCc2c1[nH]c1cc(O)ccc21 | inconclusive: 35.5 µM [activator, single point] and inconclusive: 1.41 µM [inhibitor, partial curve]
O=C(Cc1cc(=O)[nH][nH]1)N/N=C/c1ccccc1Cl | inconclusive: 2.82 µM [inhibitor, partial curve]
CN1CCC(N(C)c2nc(-c3ccc([N+](=O)[O-])cc3)nc3ccccc23)CC1 | inconclusive: 12.6 µM [inhibitor, partial curve]
CCCCn1c(O)c(C(CC)=NCc2ccc3c(c2)OCO3)c(=O)[nH]c1=O | inconclusive: 25.1 µM [inhibitor, partial curve, poor fit]
CNCCc1ccc(O)c(O)c1 | inconclusive: 5.62 µM [inhibitor, partial curve] and inconclusive: 7.08 µM [inhibitor, partial curve]
O=[N+]([O-])c1ccc(N2CCNCC2)cc1NC1CC1 | inconclusive: 14.1 µM [inhibitor, partial curve]
Oc1cc2c(cc1O)[C@H]1c3ccccc3CN[C@@H]1CC2 | inconclusive: 25.1 µM [inhibitor, partial curve]
CC[C@@H]1/C=C/C=C/C[C@H](C)[C@@H](O)[C@](C)(O)C(=O)[C@H](C)[C@@H](O)[C@H](C)C(=O)[C@H](C)[C@@H](O)[C@H](C)/C=C/C(=O)O[C@H]2[C@@H](C)[C@@H](CC1)O[C@@]1(CC[C@@H](C)[C@@H](C[C@H](C)O)O1)[C@@H]2C | inconclusive: 17.8 µM [inhibitor, single point]
CCOC(=O)c1c(/N=C/c2c(O)n(-c3ccccc3F)c(=S)[nH]c2=O)sc2c1CCCC2 | active: 22.4 µM
COc1c2c(c(CC=C(C)C)c3oc(=O)c(-c4ccc(O)cc4)c(O)c13)OC(C)(C)C=C2 | inconclusive: 14.1 µM [inhibitor, partial curve]
CNNC | inconclusive: 17.8 µM [inhibitor, partial curve]
C=CCn1c(=O)c(C=Nc2c(OC)cccc2[N+](=O)[O-])c(O)n(CCCC)c1=O | inconclusive: 17.8 µM [inhibitor, partial curve]
COc1cc(NC(=O)c2cc3cc4ccc(C)cc4nc3o2)cc(OC)c1OC | inconclusive: 0.631 µM [inhibitor, full curve]
OC(c1cccc(Cl)c1)(c1cccc(Cl)c1)C1CN2CCC1CC2 (stereo not given) | inactive
